Results published in patent US20230293439A1, “SPRAY DRYING OF SUPERSATURATED SOLUTIONS OF API WITH ACETIC ACID” (BEND RESEARCH, INC., priority 2020, published 2023).

Assay: Metastability of the supersaturated nilotinib solution from the Solvent-Shift route (visual check for precipitation)
Details: Example 3: 2.19 wt % nilotinib in 85.0:9.0:6.0 (w:w:w) methanol:acetic acid:PVP-VA64, 40° C.

- Time the supersaturated solution remained visibly clear without any precipitation of solid: at least 2 h
SMILES: Cc1cn(-c2cc(NC(=O)c3ccc(C)c(Nc4nccc(-c5cccnc5)n4)c3)cc(C(F)(F)F)c2)cn1 [Nilotinib]
